The structures appear in SMILES notation. Out of some 48,000 compounds screened, about 550 (1.1%) were called active. About 4% were inconclusive and are not listed. Cut-off read from the data, not from the text of the source: active = potency below about 15 µM; inconclusive = mostly about 16 µM to 33 µM; inactive = weaker than that. Some of the results follow.
Potency is the fitted concentration of half-maximal effect.

Chain of UniProt P04062 (P04062 whole entry, looked up): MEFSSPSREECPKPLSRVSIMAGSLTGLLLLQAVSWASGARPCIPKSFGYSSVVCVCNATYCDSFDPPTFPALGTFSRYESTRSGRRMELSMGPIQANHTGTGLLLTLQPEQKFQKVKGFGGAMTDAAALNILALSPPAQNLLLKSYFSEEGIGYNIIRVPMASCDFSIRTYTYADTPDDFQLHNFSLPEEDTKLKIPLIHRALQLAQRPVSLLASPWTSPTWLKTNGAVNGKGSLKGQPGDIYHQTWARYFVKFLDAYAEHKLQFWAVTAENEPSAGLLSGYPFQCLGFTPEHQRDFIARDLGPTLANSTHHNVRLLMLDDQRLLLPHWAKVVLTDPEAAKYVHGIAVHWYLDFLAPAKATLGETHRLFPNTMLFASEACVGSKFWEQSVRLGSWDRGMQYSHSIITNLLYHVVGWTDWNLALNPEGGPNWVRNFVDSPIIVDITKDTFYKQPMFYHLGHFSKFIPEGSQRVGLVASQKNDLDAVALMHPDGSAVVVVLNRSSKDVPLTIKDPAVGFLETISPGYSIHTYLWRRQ

The target in the assay is Lysosomal acid glucosylceramidase (Homo sapiens) (UniProt P04062). Nature of the assay: Glucocerebrosidase.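 Note: the screen sought inhibitors.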 Conditions: purified enzyme, resorufin glucoside fluorescence (screen aimed at inhibitors), 20 min; series mostly up to 77 µM. The essentials:
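Wild-type enzyme at 0.2 nM final in 50mM citric acid/KH2PO4, 10mM sodium taurocholate, 0.01% tween-20, pH 5.9, with resorufin beta-D-glucopyranoside at 30 uM final. Compounds titrated, 20 min at RT, red fluorescence read; AC50 from titration.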
Regarding `Cc1nn(-c2ccccc2)c(C)c1C(=O)OCC(=O)N1CC(=O)Nc2ccccc21`, the Potency is inactive: > 76.9 µM. As for `CCC1(C)CC(=O)N(c2ccc(C(=O)O)c(O)c2)C1=O` (stereo not given), the figure is inactive: > 76.9 µM; as for `CCn1c(NCc2cccs2)nc2ccccc21`, inactive: > 76.9 µM; as for `CC(C)CCn1c(=S)[nH]c2ncccc2c1=O`, inactive: > 76.9 µM. For the compound `COc1cc(OC)cc(C(=O)NCc2n[nH]c(=S)n2-c2ccccc2)c1`, the Potency was inactive: > 76.9 µM.

As to `CC(CCc1ccccc1)NC(=O)COC(=O)C1=COCCO1` (stereo not given), the Potency was inactive: > 76.9 µM. Take `COC(=O)c1cccc(COC(=O)c2ccccc2NC(=O)c2ccco2)c1`: the Potency is inactive: > 76.9 µM. Consider `O=C(Oc1cccc2c(O)cccc12)c1ccccc1`, for which the Potency was inactive: > 76.9 µM. With `COc1ccc(-c2ccnc(SCC(=O)N3CCOCC3)n2)cc1`, the Potency is inactive: > 76.9 µM. Then `CC1CCN(c2nc3c(c(=O)n(C)c(=O)n3C)n2CCSc2nc3ccccc3s2)CC1`, with inactive: > 76.9 µM; and `COC(=O)CSc1nnc(-c2ccc(S(=O)(=O)NCc3cccs3)cc2)o1`, with inactive: > 76.9 µM; and `Cc1ccccc1Cn1nc(C)c(NC(=O)c2cc(-c3cccs3)on2)c1C`, with inactive: > 76.9 µM. Then `Cc1[nH]c2ccc(CNS(=O)(=O)c3ccc(S(=O)(=O)N4CCOCC4)cc3)cc2c1C`, with inactive: > 76.9 µM; and `CCOC(=O)/C=C1\SCC(=O)N1CC(=O)c1ccc[nH]1`, with inactive: > 76.9 µM; and `O=C(CSc1nc2ccccc2o1)Nc1ccc(N2CCOCC2)c(Cl)c1`, with inactive: > 76.9 µM. As for `c1ccc2sc(N3CCN(Cc4nnnn4CC4CCCO4)CC3)nc2c1` (stereo not given), the figure is inactive: > 76.9 µM. For the compound `COc1ccc(-c2nc(C)sc2CC(=O)O)cc1`, the Potency was inactive: > 76.9 µM. Then `Cn1c(=O)c2c(nc(NCc3ccccc3)n2CC(=O)NCc2ccccc2)n(C)c1=O`, with inactive: > 76.9 µM. With `CCOC(=O)Cc1c[nH]c2ccccc12`, the Potency was inactive: > 76.9 µM.

`O=C(O)c1cn(-c2ccccc2)nc1-c1ccncc1`: the Potency was inactive: > 76.9 µM. Then `Cc1cc(C)n(C(=O)c2ccncc2)n1`, with inactive: > 76.9 µM; and `CC(C)[C@H](NC(=O)[C@@H]1CSCN1C(=O)OC(C)(C)C)C(=O)NCC1CCC(C(=O)O)CC1` (stereo not given in full), with inactive: > 76.9 µM; and `Cc1ccc(-c2nnc(N3CCN(c4ccccn4)CC3)c3ccccc23)cc1`, with inactive: > 76.9 µM.

In the case of `COc1cc2c(cc1OC)C(COc1ccc3c(C)cc(=O)oc3c1)N(C(=O)c1ccco1)CC2` (stereo not given), the Potency was inactive: > 76.9 µM. For the compound `COc1ccc(OC)c(-c2nnc(SCC(=O)N3CCOCC3)o2)c1`, the Potency is inactive: > 76.9 µM.

These data come from PubChem BioAssay AID360 (National Center for Advancing Translational Sciences (NCATS), 2006).
